The results in this text go back to US7144991B2, “Streptavidin expressed gene fusions and methods of use thereof” (Aletheon Pharmaceuticals, Inc., priority 1999, dated 2006).

Data set [1] deals with T1, 0.1% NP40 membrane extract from the human carcinoma cell line LS-174 (antigen EGP40 or EPCAM) (Homo sapiens, UniProt P16422).
T1 construct: an 0.1% NP40 membrane extract from the human carcinoma cell line, LS-174 (ATCC #CL188); host or cells: LS-174 human carcinoma cell line (0.1% NP40 membrane extract)
T1 sequence (P16422 24-314): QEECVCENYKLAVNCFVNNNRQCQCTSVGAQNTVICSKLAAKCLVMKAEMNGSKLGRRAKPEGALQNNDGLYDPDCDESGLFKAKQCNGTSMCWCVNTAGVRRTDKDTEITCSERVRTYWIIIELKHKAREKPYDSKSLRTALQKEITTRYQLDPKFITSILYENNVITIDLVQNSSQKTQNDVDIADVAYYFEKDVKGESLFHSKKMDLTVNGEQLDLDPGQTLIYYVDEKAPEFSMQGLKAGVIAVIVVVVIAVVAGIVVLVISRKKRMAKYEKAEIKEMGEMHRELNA
The data set is described as follows: HuNR-LU-10 competitive immunoreactivity ELISA. The format is binding. The note with it: relative to intact divalent humanized NR-LU-10 antibody; competition with peroxidase-labeled murine NR-LU-10. On the procedure: HuNR-LU-10 Competitive Immunoreactivity ELISA. Serial dilutions of the humanized NR-LU-10 whole antibody or the huNR-LU-10 fusion protein were allowed to compete with peroxidase-labeled murine NR-LU-10 whole antibody for binding to an 0.1% NP40 membrane extract from the human carcinoma cell line, LS-174 (ATCC #CL188). Following a log-logit transformation of the data in which curves were fit to the same slope, the concentration of competitor antibody that gave 50% inhibition (k) was calculated. Percent immunoreactivity was determined according the formula: k (fusion protein standard)/k (whole antibody standard)×100.

A short description of another data set: Biotin binding capacity. The note with it: 9-fold molar excess of [3H]biotin. The procedure:
Biotin Binding and Dissociation. Biotin binding capacity was determined by incubation of a known quantity of fusion protein with a 9-fold molar excess of [3H]biotin (NEN Research Products, Boston, Mass.). After removal of uncomplexed biotin using streptavidin-immobilized beads (Pierce Chemical; Rockford, Ill.), the amount of [^3H]biotin associated with the fusion protein was determined.
Biotin Binding Capacity. Biotin binding capacity was determined by incubation of a known quantity of fusion protein with a 9-fold molar excess of [^3H]biotin (NEN Research Products, Boston, Mass.). After removal of uncomplexed biotin using streptavidin-immobilized beads (Pierce Chemical; Rockford, Ill.), the amount of [^3H]biotin associated with the fusion protein was determined.

In data set [2] the test system is SW-1222 human colon cancer xenografts. The data set is described as follows: Pretargeted biodistribution, blood clearance and tumor uptake with huNR-LU-10 scFvSA.
Data set [3] has the same test system. Particulars: mouse, in vivo.

B1: huNR-LU-10 scFvSA: Fusion of humanized NR-LU-10 (anti-EGP40/EPCAM) scFv to genomic streptavidin, SEQ ID NO: 4, plasmid pEX94B (protein)
chain: MRKIVVAAIAVSLTTVSITAMADIQMTQSPSSLSASVGDRVTITCRASQGIRGNLDWYQQKPGKGPKLLIYSTSNLNSGVPSRFSGSGSGSDYTLTISSLQPEDFATYYCLQRNAYPYTFGQGTKLEIKISGGGGSGGGGSGGGGSSQVQLVQSGAEVKKPGASVKVSCKASGFNIKDTYMHWVRQAPGQGLQWMGRIDPANGNTKSDLSFQGRVTITADTSINTAYMELSSLRSDDTAVYYCSREVLTGTWSLDYWGQGTLVTVSSGSGSA[not shown - about 150 residues]
modifications: Predicted amino acid sequence for huNR-LU-10 single chain antibody-genomic streptavidin fusion.
Consider B1, for which, in data set [1], the Percent immunoreactivity was around 225%. Further, the “Biotin binding capacity (average biotins bound)” value in the data set “Biotin binding capacity” was determined as 3.0 biotins. Also, the “Concentration of 125I-huNR-LU-10 scFvSA radioactivity in blood and most well-perfused soft tissues” value in data set [2] (575 μg iv, sCA at 18 h, exceptions liver and tumor) is reported as “very low”. For the same molecule, the entries for the “Tumor to blood ratio” value in data set [2] (by 24 hours after DOTA-biotin injection) and in data set [2] (two hours after DOTA-biotin injection) were “several thousand” and around 100, respectively. In addition, the “Concentration of 111In-DOTA-biotin radioactivity in blood and all non-xenograft soft tissues” value in data set [2] (pretargeted 111In-DOTA-biotin 1.0 μg, 3 h after sCA) is “very low”. Further, the “Tumor AUC of 111In-DOTA-biotin” value in data set [3] is on record as 1726.
